From paper PMC12032302, “A20 attenuates oxidized self-DNA-mediated inflammation in acute kidney injury” (Signal Transduction and Targeted Therapy, 2025)
No constants are given. Whether binding was seen depends on the method and setting. For some assays here: In cells and extracts the contact can be indirect. Some entries that bind do so weakly or less than the wild type.

Sequences of proteins named here, by UniProt entry; tags and fusion partners are left off. A change or cut given only in a name is not applied to a line headed by its entry.
UniProt Q9ES74: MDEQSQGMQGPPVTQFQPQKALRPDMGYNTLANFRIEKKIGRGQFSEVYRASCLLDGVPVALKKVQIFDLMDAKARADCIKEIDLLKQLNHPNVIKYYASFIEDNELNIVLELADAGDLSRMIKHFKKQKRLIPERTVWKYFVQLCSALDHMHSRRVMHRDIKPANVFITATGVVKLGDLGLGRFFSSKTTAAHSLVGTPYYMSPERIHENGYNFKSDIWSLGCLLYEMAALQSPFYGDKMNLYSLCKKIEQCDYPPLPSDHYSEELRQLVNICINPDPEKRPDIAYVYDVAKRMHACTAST

Key:
biotin-labeled P-II = molecular target: T1, biotin-labeled P-II; assay: pull-down; lysate of HEK293T transfected with HA-NEK7 plasmids incubated with biotin-conjugated peptide overnight at 4 °C; streptavidin magnetic beads; immunoblot for HA-NEK7; only the target purified
T1 sequence (peptide, biotin (position not stated)): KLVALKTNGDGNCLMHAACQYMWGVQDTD

A20-derived peptide P-II = molecular target: T2, A20-derived peptide P-II; assay: BLI; 3×HA-NEK7 (WT or Tri-MUT) purified from HEK293T with HA antibody; legend: P-II diluted into the indicated concentrations; methods: peptide immobilised on AR2G biosensors; 1:1 binding model; both purified
T2 sequence (peptide): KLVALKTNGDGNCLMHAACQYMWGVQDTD

| Substance | binding (biotin-labeled P-II) | binding (A20-derived peptide P-II) |
| --- | --- | --- |
| HA-NEK7 (mouse NIMA-related kinase 7, wild type) (from UniProt Q9ES74 1-302) | binds | – |
| HA-Tri-MUT-NEK7 (mouse NEK7 K130A, L132R, K140A) (from UniProt Q9ES74 1-302) | – | no binding |
